# The list shows a part of the results.
# B1: SSR2 (Sclerotium rolfsii) (protein)
# chain: MVYKITVRVYQTNPDAFFHPVEKTVWKYANGGTWSITDDQHVLTMGGSGTSGTLRFHADNGESFTATFGVHNYKRWCDIVTNLAADETGMVINQQYYSQKNREEARERQLSNYQVKNAKGRNFQIVYTEAEGNDLHANLIIG
# How the values were obtained:
# Assay in all cases: glycan array binding signal (z-score within array); higher = stronger binding
# Details in all cases: glycan notation: IUPAC condensed, linker removed
# [1] = target: Neu5Ac(a2-6)GlcNAc(b1-4)GlcNAc
# Method in brief: (§1)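 The binding signal is a Z-score computed within each array and averaged over linkers. Arrays of the same protein sequence at different concentrations or buffers were also averaged together. Data originate from 3228 arrays in the Consortium for Functional Glycomics database, kept only where the protein sequence was available.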
# [2] = target: Neu5Ac(a2-6)GlcNAc(b1-4)GlcNAc(b1-4)GlcNAc
# Method in brief: as §1
# [3] = target: Neu5Ac(a2-8)Neu5Ac
# Method in brief: as §1
# [4] = target: Neu5Ac(a2-8)Neu5Ac(a2-3)Gal(b1-3)GalNAc(b1-4)[Neu5Ac(a2-3)]Gal(b1-4)Glc
# Method in brief: as §1
# [5] = target: Neu5Ac(a2-8)Neu5Ac(a2-3)Gal(b1-3)GalNAc(b1-4)[Neu5Ac(a2-8)Neu5Ac(a2-3)]Gal(b1-4)Glc
# Method in brief: as §1
# [6] = target: Neu5Ac(a2-8)Neu5Ac(a2-3)Gal(b1-4)Glc
# Method in brief: as §1
# [7] = target: Neu5Ac(a2-8)Neu5Ac(a2-3)Gal(b1-4)GlcNAc
# Method in brief: as §1
# [8] = target: Neu5Ac(a2-8)Neu5Ac(a2-3)[Gal(b1-3)GalNAc(b1-4)]Gal(b1-4)Glc
# Method in brief: as §1
# [9] = target: Neu5Ac(a2-8)Neu5Ac(a2-3)[GalNAc(b1-4)]Gal(b1-4)Glc
# Method in brief: as §1
# [10] = target: Neu5Ac(a2-8)Neu5Ac(a2-8)Neu5Ac
# Method in brief: as §1
# [11] = target: Neu5Ac(a2-8)Neu5Ac(a2-8)Neu5Ac(a2-3)Gal(b1-4)Glc
# Method in brief: as §1
# [12] = target: Neu5Ac(a2-8)Neu5Ac(a2-8)Neu5Ac(a2-3)[Gal(b1-3)GalNAc(b1-4)]Gal(b1-4)Glc
# Method in brief: as §1
# [13] = target: Neu5Ac(a2-8)Neu5Ac(a2-8)Neu5Ac(a2-3)[GalNAc(b1-4)]Gal(b1-4)Glc
# Method in brief: as §1
# [14] = target: Neu5Ac(a2-8)Neu5Ac(a2-8)Neu5Ac(a2-8)Neu5Ac(a2-3)[GalNAc(b1-4)]Gal(b1-4)Glc
# Method in brief: as §1
# [15] = target: Neu5Ac(a2-8)Neu5Gc(a2-3)Gal(b1-4)GlcNAc
# Method in brief: as §1
# [16] = target: Neu5Ac(b2-6)Gal(b1-4)GlcNAc
# Method in brief: as §1
# [17] = target: Neu5Ac(b2-6)GalNAc
# Method in brief: as §1
# [18] = target: Neu5Ac9Ac(a2-3)Gal(b1-3)GlcNAc
# Method in brief: as §1
# [19] = target: Neu5Ac9Ac(a2-3)Gal(b1-4)GlcNAc
# Method in brief: as §1
# [20] = target: Neu5Ac9Ac(a2-6)Gal(b1-4)GlcNAc
# Method in brief: as §1
# [21] = target: Neu5Gc(a2-3)Gal(b1-3)GlcNAc
# Method in brief: as §1
# [22] = target: Neu5Gc(a2-3)Gal(b1-3)[Fuc(a1-4)]GlcNAc
# Method in brief: as §1
# [23] = target: Neu5Gc(a2-3)Gal(b1-4)Glc
# Method in brief: as §1
# [24] = target: Neu5Gc(a2-3)Gal(b1-4)GlcNAc
# Method in brief: as §1
# [25] = target: Neu5Gc(a2-3)Gal(b1-4)GlcNAc(b1-3)Gal(b1-4)GlcNAc(b1-2)Man(a1-3)[Neu5Gc(a2-3)Gal(b1-4)GlcNAc(b1-3)Gal(b1-4)GlcNAc(b1-2)Man(a1-6)]Man(b1-4)GlcNAc(b1-4)GlcNAc
# Method in brief: as §1
# [26] = target: Neu5Gc(a2-3)Gal(b1-4)[Fuc(a1-3)]GlcNAc
# Method in brief: as §1
# [27] = target: Neu5Gc(a2-6)Gal(b1-4)GlcNAc
# Method in brief: as §1
# [28] = target: Neu5Gc(a2-6)GalNAc
# Method in brief: as §1
# [29] = target: Neu5Gc(a2-8)Neu5Ac(a2-3)Gal(b1-4)GlcNAc
# Method in brief: as §1
# [30] = target: Neu5Gc(a2-8)Neu5Gc(a2-3)Gal(b1-4)GlcNAc
# Method in brief: as §1
# [31] = target: Neu5Gc(a2-8)Neu5Gc(a2-3)Gal(b1-4)GlcNAc(b1-3)Gal(b1-4)GlcNAc
# Method in brief: as §1
# [32] = target: Neu5Gc(a2-8)Neu5Gc(a2-6)Gal(b1-4)GlcNAc
# Method in brief: as §1
# [33] = target: Neu5Gc(b2-6)Gal(b1-4)GlcNAc
# Method in brief: as §1
binder,measurement,setting,value
B1,glycan array binding signal (z-score),[1],-0.287
same,glycan array binding signal (z-score),[2],-0.292
same,glycan array binding signal (z-score),[3],-0.281
same,glycan array binding signal (z-score),[4],-0.271
same,glycan array binding signal (z-score),[5],-0.278
same,glycan array binding signal (z-score),[6],-0.288
same,glycan array binding signal (z-score),[7],-0.289
same,glycan array binding signal (z-score),[8],-0.287
same,glycan array binding signal (z-score),[9],-0.279
same,glycan array binding signal (z-score),[10],-0.286
same,glycan array binding signal (z-score),[11],-0.277
same,glycan array binding signal (z-score),[12],-0.278
same,glycan array binding signal (z-score),[13],-0.267
same,glycan array binding signal (z-score),[14],-0.285
same,glycan array binding signal (z-score),[15],-0.277
same,glycan array binding signal (z-score),[16],-0.277
same,glycan array binding signal (z-score),[17],-0.282
same,glycan array binding signal (z-score),[18],-0.282
same,glycan array binding signal (z-score),[19],-0.236
same,glycan array binding signal (z-score),[20],-0.291
same,glycan array binding signal (z-score),[21],-0.29
same,glycan array binding signal (z-score),[22],-0.28
same,glycan array binding signal (z-score),[23],-0.276
same,glycan array binding signal (z-score),[24],-0.298
same,glycan array binding signal (z-score),[25],-0.277
same,glycan array binding signal (z-score),[26],-0.284
same,glycan array binding signal (z-score),[27],-0.28
same,glycan array binding signal (z-score),[28],-0.292
same,glycan array binding signal (z-score),[29],-0.287
same,glycan array binding signal (z-score),[30],-0.285
same,glycan array binding signal (z-score),[31],-0.286
same,glycan array binding signal (z-score),[32],-0.286
same,glycan array binding signal (z-score),[33],-0.28
